Data taken from PubChem BioAssay (NCATS).
This list was built around the results that the source calls inconclusive (neither active nor inactive); the mix of calls is not that of the screen. Potencies beside an inconclusive call are fits to weak or partial responses and may not hold up. The source made the active and inactive calls. The call rests on the fitted dose curve; in most records, active means well fitted activation curve with a large enough effect; inconclusive means small, poorly fitted or top-dose-only effect; inactive means no such curve, though single readings can be large or run the other way.

Target: Cellular tumor antigen p53 (Homo sapiens) (UniProt P04637)
UniProt P04637, sequence (P04637 whole entry, looked up): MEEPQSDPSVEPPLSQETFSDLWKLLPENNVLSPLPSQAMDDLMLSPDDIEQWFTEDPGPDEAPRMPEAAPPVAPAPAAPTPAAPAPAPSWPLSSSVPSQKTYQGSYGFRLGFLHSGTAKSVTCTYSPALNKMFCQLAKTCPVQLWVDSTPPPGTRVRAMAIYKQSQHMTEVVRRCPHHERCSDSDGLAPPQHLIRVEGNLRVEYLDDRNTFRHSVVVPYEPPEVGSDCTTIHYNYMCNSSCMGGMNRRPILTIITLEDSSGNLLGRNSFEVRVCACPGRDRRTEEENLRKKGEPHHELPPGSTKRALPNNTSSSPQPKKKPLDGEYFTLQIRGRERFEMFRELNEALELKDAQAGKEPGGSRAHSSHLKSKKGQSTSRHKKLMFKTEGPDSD
Test: Primary qHTS for small molecule compounds that upregulate eGFP-tagged delta133p53alpha (in N-terminal) cells. (AID 2060322);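 further: cells pre-induced with doxycycline then dosed without doxycycline; nearly all actives have a fitted effect of over 75% in size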;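 on activation: series mostly up to about 56 µM; 0% = DMSO vehicle and 100% = reference activator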
Settings: NCI-H358 eGFP-delta133p53alpha fluorescence, 24 h; activation: active compounds read high
Text: Assay Development and Screening Technology
National Center for Advancing Translational Sciences (NCATS),
National Institute of Health (NIH), Rockville, Maryland
Cellular senescence (CS) is one of the hallmarks of aging and age-related diseases. Senescent cells are characterized by an irreversible growth arrest, an increase in senescence-associated beta-galactosidase (SA-beta-gal) activity and p16INK4a expression, an activation of the DNA damage response pathways, and the emergence of a senescence-associated secretory phenotype (SASP).
Delta133p53alpha, a human/primate-specific p53 protein isoform, delays or inhibits the induction of CS and SASP in various types of human cells, including progeria-derived fibroblasts, primary normal astrocytes, and CD8+ T lymphocytes. Induction of delta133p53alpha with small molecule compounds may provide therapeutic opportunities for inhibition of senescence/SASP-associated pathologies in progeria syndromes, astrocyte-mediated neuroprotection in neurodegenerative diseases, and possibly prevention and treatment of a wider range of senescence- and aging-associated diseases.
Here we report the development and validation of a cell-based quantitative high throughput screening (qHTS) assay in 1,536-well format. This qHTS assay uses the NCI-H358 cell line with doxycycline-inducible expression of enhanced green fluorescent protein (eGFP)-tagged delta133p53alpha, which allows efficient and highly quantitative measurement of the protein levels.
PROTOCOL TABLE (as described by Inglese J, Shamu CE and Guy RK. 2007)
SEQUENCE No. (e.g., 1, 2, 3, etc.); […] (e.g., Cells, Incubation, Reagent, etc.); VALUE; DESCRIPTION.
1; Cells; 4uL; 800 doxycycline treated cells / well in doxycycline-free media, 1536-well black, clear-bottom low base Aurora microplates.
2; Compounds; 23 nL; Kalypsis pin tool (Wako) equipped with 1536-well pin heads, 5-azacytidine positive control.
3; Incubation; 24 hr; 37C, 5% CO2; 95% relative humidity.
4; Aspiration; 1x; BioTek EL406 washer dispenser (Agilent).
5; Fixing; 3.5% paraformaldehyde, BioTek EL406 washer dispenser (Agilent).
6; Washing; 1x PBS; BioTek EL406 washer dispenser (Agilent).
7; Nuclei staining; 1:1000 dilution of Hoechst 33342 (Thermofisher), BioTek EL406 washer dispenser (Agilent).
8; Incubation; 20 min; in the dark at room temperature.
9; Washing; 2x, 1x PBS (ThermoFisher), BioTek EL406 washer dispenser (Agilent).
10; Reagent; 10 uL; 1x PBS per well, sealed with clear adhesive tape.
NOTES (numbers refer to sequence numbers above).
1. NCI-H358 cells expressing eGFP-tagged delta133p53alpha were grown in T75 culture flasks and treated with doxycycline for 24h, at 10 ng/ml for eGFP-D133p53a cells (N-terminal cell) and 100 ng/ml for D133p53a-eGFP cells (C-terminal cells). Cells were trypsinized, counted using a Counted 3 Automated Cell Counter (Thermo Fisher), and diluted to a concentration of 200,000 cells/ml. A Multidrop Combi Reagent Dispenser (ThermoFisher) was used to dispense 800 cells/well in […] of doxycycline-free media, into 1536-well black/clear bottom low base plates (AuroraMicroplates).
2. After plating cells, 23 nl of compound library, DMSO vehicle control or positive control (5-azacytidine) were transferred by Pin Tool (Wako). The plate map layout was the same for each plate: (column 1) non-doxycycline treated cells + DMSO vehicle control; (column 2) doxycycline treated cells + DMSO vehicle control baseline; (column 3) doxycycline treated cells + positive control 57.5 uM final concentration 5-azacytidine; (column 4) doxycycline treated cells + serial dilution of 5-azacytidine, 16-point 1:2 titration spanning 1.8 nM to […] final concentration; (columns 5-48) doxycycline treated cells + titration of library compounds.
3. Cells were incubated at 37 °C, 5 % CO2, 95% RH with breathable metal lid for 24h.
4-10. […] After two washes, 10 ul of 1X PBS (Thermo Fisher) was dispensed to each well. Clear adhesive plate seals (VWR) were applied and plates stored at 4 °C.
11. […]
Potency means the concentration at half of the fitted maximal effect; tags describe the fitted curve by direction and shape.

Structure (SMILES) | Potency | activation
Cc1c(N)nc([C@H](CC(N)=O)NC[C@@H](N)C(N)=O)nc1C(=O)N[C@H](C(=O)N[C@@H](C)[C@H](O)[C@@H](C)C(=O)N[C@@H](C(=O)NCCc1nc(-c2nc(C(=O)NCCC[S+](C)C)cs2)cs1)[C@@H](C)O)C(O[C@H]1O[C@H](CO)[C@H](O)[C@@H](O)[C@@H]1O[C@H]1O[C@H](CO)[C@@H](O)[C@H](OC(N)=O)[C@H]1O)c1cnc[nH]1 (stereo not given in full) | inconclusive: 2.73 µM [activator, full curve, poor fit] | 
COc1ccc(C(=O)c2c(C)n(CCN3CCOCC3)c3ccccc23)cc1 | inconclusive: 3.89 µM [activator, full curve, poor fit] | 
O=c1cccc2n1CC1CNC[C@H]2C1 | inconclusive: 15.3 µM [activator, single point] | 
C=CC(=O)NCNC(=O)C=C | inconclusive: 28.2 µM [activator, single point] | 
CN(C)CCc1c[nH]c2ccc(O)cc12 |  | inactive: 5.08%
CO[C@@H]1C[C@H](O[C@H]2CC[C@@]3(C)C(CCC4C3CC[C@]3(C)[C@@H](C5=CC(=O)OC5)[C@@H](OC(C)=O)CC43O)C2)O[C@H](C)[C@@H]1O[C@H]1O[C@H](CO[C@@H]2O[C@H](CO)[C@@H](O)[C@H](O)[C@H]2O)[C@@H](O)[C@H](O)[C@H]1O (stereo not given in full) | inconclusive: 5.09 µM [activator, partial curve, poor fit] | 
CCC1(O)CCC2C3CCC4=CC(=O)CCC4C3CCC21CC (stereo not given) |  | inactive: -2.33%
C/C1=C/[C@@H](C)C/C=C/[C@H]2[C@@H]3O[C@]3(C)[C@@H](C)[C@H]3[C@H](Cc4c[nH]c5ccccc45)NC(=O)[C@]32C(=O)/C=C\C(=O)[C@@H]1O | active: 11.7 µM | 
C[C@@H]1O[C@@H](O[C@H]2CC[C@@]3(C)C(CC[C@@H]4C3CC[C@]3(C)[C@@H](C5=CC(=O)OC5)CC[C@]43O)C2)[C@H](O[C@@H]2O[C@H](CO)[C@@H](O)[C@H](O)[C@H]2O)[C@H](O)[C@H]1O (stereo not given in full) | inconclusive: 2.51 µM [activator, single point] | 
COc1ccc(C(C)(C)C)cc1CN[C@H]1C2CCN(CC2)[C@H]1C(c1ccccc1)c1ccccc1 | inconclusive: 23.9 µM [activator, single point] | 
CNC(=O)NC(O)C(Cl)(Cl)Cl (stereo not given) | inconclusive: 43.7 µM [activator, single point] | 
O=C1/C(=C/c2ccccc2)C[C@@]2(O)[C@H]3Cc4ccc(O)c5c4[C@@]2(CCN3CC2CC2)[C@H]1O5 | inconclusive: 37.9 µM [activator, single point] | 
C[C@]12CC[C@@H](O)C[C@@H]1CC[C@@H]1[C@@H]2CC[C@]2(C)C(=O)[C@@H](Br)C[C@@H]12 | inconclusive: 30.1 µM [activator, single point] | 
COc1ccc(C23CCC(=O)C=C2N(C)CC3)cc1OC (stereo not given) | inconclusive: 3.38 µM [activator, single point] | 
O=C1C=CC(=O)C=C1 |  | inactive: 48.4%
C[C@H]1O[C@@H](O[C@H]2CC[C@]3(C=O)C4CC[C@]5(C)[C@@H](C6=CC(=O)OC6)CC[C@]5(O)[C@@H]4CC[C@]3(O)C2)C[C@@H](O)[C@@H]1O (stereo not given in full) | inconclusive: 0.147 µM [activator, full curve, poor fit] | 
C[C@]12CC[C@@H]3[C@@H](CCC4=CC(=O)CC[C@@H]43)[C@@H]1CC[C@@H]2OC(=O)CCc1ccccc1 |  | inactive: 7.88%
CNc1ccc2oc(C[C@H]3O[C@@]4(CC[C@H]3C)O[C@H]([C@H](C)C(=O)c3ccc[nH]3)[C@H](C)C[C@H]4C)nc2c1C(=O)O | inconclusive: 4.26 µM [activator, full curve, poor fit] | 
CN1C(=O)N(c2ccc(C#N)c(C(F)(F)F)c2)C(=O)[C@]1(CO)c1ccccc1 |  | inactive: 17%
CN[C@@H]1C[C@H]2O[C@@](C)([C@@H]1OC)n1c3ccccc3c3c4c(c5c6ccccc6n2c5c31)C(=O)NC4 | active: 0.426 µM | 

Structure (SMILES) | Potency | activation
COc1ccc(N(C(=O)Oc2c(C)cccc2C)c2ccnc(Nc3ccc(N4CCN(C)CC4)cc3)n2)c(OC)c1 | inconclusive: 2.69 µM [activator, partial curve, poor fit] | inactive: -14.2%
N#Cc1cn([C@@H]2O[C@H](CO)[C@H](O)[C@@H]2O)c2ncnc(N)c12 | active: 0.0757 µM | 
CC(Cc1ccc(OCC(=O)O)cc1)NCC(O)c1cccc(Cl)c1 (stereo not given) | inconclusive: 1.2 µM [activator, full curve] | 
Fc1ccc(C(OCCN2CCN(CCCc3ccccc3)CC2)c2ccc(F)cc2)cc1 | inconclusive: 15.5 µM [activator, partial curve] | 
COC1CC(OC2CCC3(C)C(CCC4C3CCC3(C)C(C5=CC(=O)OC5)C(OC(C)=O)CC43O)C2)OC(C)C1OC1OC(CO)C(O)C(O)C1O (stereo not given) | inconclusive: 3.54 µM [activator, partial curve] | 
COP(=S)(OC)SCN1C(=O)c2ccccc2C1=O | active: 21.9 µM | 
C=C1C(=O)O[C@@H]2[C@H]3C(=C)[C@@H](O)C[C@H]3C(=C)C[C@@H](O)[C@@H]12 | inconclusive: 7.57 µM [activator, partial curve] | 
CCn1cnc2c(Nc3cccc(Cl)c3)nc(N[C@@H]3CCCC[C@@H]3N)nc21 | active: 6.01 µM | 
CN(C)CCc1c[nH]c2cccc(O)c12 |  | inactive: 15.3%
NC(N)=Nc1ccc2[nH]c3c(c2c1)C[C@@]1(O)[C@H]2Cc4ccc(O)c5c4[C@@]1(CCN2CC1CC1)[C@H]3O5 | inconclusive: 37.9 µM [activator, single point] | 
C[C@H]1O[C@@H](O[C@H]2[C@@H](O)C[C@H](O[C@H]3[C@@H](O)C[C@H](O[C@H]4CC[C@@]5(C)[C@H](CC[C@@H]6[C@@H]5CC[C@]5(C)[C@@H](C7=CC(=O)OC7)CC[C@]65O)C4)O[C@@H]3C)O[C@@H]2C)C[C@H](O)[C@@H]1O | inconclusive: 3.09 µM [activator, partial curve, poor fit] | 
C#C[C@]1(O)C=C[C@H]2[C@@H]3CCC4=CC(=O)CC[C@@H]4[C@H]3CC[C@@]21CC |  | inactive: 10.7%
CCCOC(=O)c1cncn1C(C)c1ccccc1 (stereo not given) |  | inactive: 17.5%
Nc1ccc(Cl)cc1N | active: 22.4 µM | 
ClC1=C(Cl)[C@]2(Cl)[C@@H]3[C@@H]4C[C@@H]([C@H]5O[C@@H]45)[C@@H]3[C@@]1(Cl)C2(Cl)Cl | inconclusive: 7.96 µM [activator, single point] | 
CS[C@]1(CO)C(=O)N2[C@H]3C(=CC=C[C@@H]3O)C[C@@]2(SC)C(=O)N1C |  | inactive: -6.11%
C[C@@H]1O[C@@H](O[C@@H]2C=C3CC[C@@H]4[C@H](CC[C@]5(C)[C@@H](c6ccc(=O)oc6)CC[C@]45O)[C@@]3(C)CC2)[C@H](O)[C@H](O)[C@H]1O | inconclusive: 0.437 µM [activator, full curve, poor fit] | 
CCCN1CCC[C@@H](c2cccc(O)c2)C1 | inconclusive: 0.0379 µM [activator, full curve] | 
CCCCC/C=C\C/C=C\C/C=C\C/C=C\CCCC(=O)NCC(=O)O | inconclusive: 43.7 µM [activator, single point] | 
